# Experimental data published in PubChem BioAssay AID624417 (National Center for Advancing Translational Sciences (NCATS), 2012).
# Values joined by “and” are separate entries in the source; they are usually repeats but may differ in a detail not shown here. Identical values can stand only once. The campaign covered roughly 410,000 compounds. About 6,400 (1.6%) were called active. The inconclusive results got no clear call from the source; some entries with a clear call stand among them for comparison. The call rests on the fitted dose curve; in most records, active means well fitted inhibition curve with a large enough effect; inconclusive means small, poorly fitted or top-dose-only effect; inactive means no such curve, though single readings can be large or run the other way. Potencies beside an inconclusive call are fits to weak or partial responses and may not hold up.
# Biological target: Glucagon-like peptide 1 receptor (Homo sapiens) (UniProt P43220)
# Chain of UniProt P43220 (P43220 whole entry, looked up): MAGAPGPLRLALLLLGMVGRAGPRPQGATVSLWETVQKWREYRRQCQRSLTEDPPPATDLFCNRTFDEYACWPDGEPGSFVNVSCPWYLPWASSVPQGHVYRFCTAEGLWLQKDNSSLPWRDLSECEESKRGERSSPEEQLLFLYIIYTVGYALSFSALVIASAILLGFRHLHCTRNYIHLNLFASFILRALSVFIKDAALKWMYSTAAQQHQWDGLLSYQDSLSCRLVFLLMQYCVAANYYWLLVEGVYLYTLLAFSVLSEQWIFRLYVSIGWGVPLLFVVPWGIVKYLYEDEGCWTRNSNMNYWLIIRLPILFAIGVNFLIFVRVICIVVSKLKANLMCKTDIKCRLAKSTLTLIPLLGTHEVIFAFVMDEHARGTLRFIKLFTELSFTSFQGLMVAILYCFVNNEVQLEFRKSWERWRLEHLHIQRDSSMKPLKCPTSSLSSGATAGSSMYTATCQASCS
# Assay: qHTS of GLP-1 Receptor Inverse Agonists (Inhibition Mode); further: nearly all actives have a fitted effect of over 55% in size
# Details: HEK293 GLP-1R CRE-luciferase, luminescence, 24 h; Potency: GLP-1R form is constitutively active unless noted; activity change, negative = inhibition: at 38.3 µM (top of the series) unless noted
# In short: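 GLP-1R inverse agonism mode: basal reporter luminescence in engineered HEK293 cells measured after one day of compound exposure at 37 deg C, with a 12 min room-temperature detection step.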
# On the % scale 0 is the no-effect control and ±100 the full control effect; potency means the concentration at half of the fitted maximal effect; tags describe the fitted curve by direction and shape.
Structure (SMILES),Potency,"activity change, negative = inhibition"
CCOc1cccc(=NC2CCCCC2)c2c(C)n(C)c(C)c12,active: 10 µM [setting not given],–
C[C@]12CCC3C(CC[C@H]4C[C@H](O)CC[C@]34C)C1[C@@H](O)[C@@H](O)[C@@H]2O (stereo not given in full),inactive,–
COC(=O)C1=C(c2cc3ccccc3s2)C[C@@H]2CC[C@H]1N2C(=O)N1CCOCC1,"inconclusive: 5.01 µM [inhibitor, full curve, poor fit]",–
CC1CN=C(Nc2cccc3ccccc23)S1 (stereo not given),"inconclusive: 10 µM [inhibitor, partial curve, poor fit]",–
COC(=O)C1=C(c2ccc(F)cc2OCc2ccccc2)C[C@@H]2CC[C@H]1N2C(=O)NCc1ccc(C)cc1,"inconclusive: 8.91 µM [inhibitor, partial curve, poor fit]",–
CCCCCCCSc1cc(OC)c(CCNC)cc1OC,"inconclusive: 14.1 µM [inhibitor, single point]",–
CC1CC(OC(=O)c2ccccc2)(c2ccccc2)C(C)CN1C (stereo not given),"inconclusive: 28.2 µM [inhibitor, single point]",–
CC1=C(C/C(C)=C/c2ccccc2)/C(=C/CO)[C@@H]2OC(=O)O[C@]2(C)C12CC2,"inconclusive: 20 µM [inhibitor, single point]",–
CCCCCCn1c(O)c(C=NC2CCN(Cc3ccccc3)CC2)c(=O)[nH]c1=O,inactive,–
CCCOC(=O)c1c(C)oc2c1cc(NS(=O)(=O)c1ccc(OCC)cc1)c1ccccc12,"inconclusive: 1.26 µM [inhibitor, full curve, poor fit]",–
CCc1ccc(-n2c(SC(CC)C(=O)N(CC)CC)nc3n[nH]c(C)c3c2=N)cc1 (stereo not given),"inconclusive: 22.4 µM [inhibitor, single point]",–
CCCNC1=C(C)C(=O)C2=C(C1=O)C(COC(N)=O)[C@]1(OC)C3NC3CN21 (stereo not given in full),–,"inconclusive: -34.8% [inhibitor] [at 38.3 µM, GLP-1R form is constitutively active]"
C[C@H](N)CN1CCc2ccc(Br)cc21,"inconclusive: 7.08 µM [inhibitor, partial curve, poor fit]",–
CCOP(=S)(OCC)SCSP(=S)(OCC)OCC,"inconclusive: 15.8 µM [inhibitor, single point]",–
CCN(CCCNS(=O)(=O)c1ccc2c(c1)oc(=O)n2C)c1cccc(C)c1,"inconclusive: 10 µM [inhibitor, partial curve, poor fit]",–
Cc1ccsc1C(=O)C1CCCN(Cc2c(C)nn(C(C)C)c2C)C1 (stereo not given),"inconclusive: 2.24 µM [inhibitor, partial curve, poor fit]",–
CC(C)(Oc1ccc(Cl)cc1)C(=O)OCC(=O)N1CCN(c2ccccc2)CC1,"inconclusive: 11.2 µM [inhibitor, partial curve, poor fit]",–
CCCc1cc(=O)oc2cc(OCC(=O)N3CCN(Cc4ccc5c(c4)OCO5)CC3)ccc12,"inconclusive: 17.8 µM [inhibitor, partial curve, poor fit]",–
C#CCCC[C@@H]1OC(=O)CNC(=O)C([C@@H](C)CC)NC(=O)[C@@H]2CCCN2C(=O)C([C@@H](C)CC)OC(=O)[C@H](Cc2ccccc2)N(C)C(=O)[C@H](C(C)C)NC(=O)C1(C)C (stereo not given in full),"inconclusive: 12.6 µM [inhibitor, single point]",–
CCOC(=O)N1CCC(NC(=O)c2ccc3c(c2)N(Cc2cccc(C)c2)C(=O)c2ccccc2S3(=O)=O)CC1,"inconclusive: 12.6 µM [inhibitor, single point]",–

Structure (SMILES),Potency,"activity change, negative = inhibition"
CCOC(=O)[C@]12Cc3cc4ccccc4cc3[C@H]1N(Cc1ccccc1)C(=O)c1ccccc12,"inconclusive: 28.2 µM [inhibitor, single point]",–
C=Cc1cc(OC)c2c(c1)c(=O)oc1c2cc(OC)c2c(O)ccc(C3OC(C)C(O)C(C)(O)C3O)c21 (stereo not given),"inconclusive: 2 µM [inhibitor, full curve, poor fit]",–
O=C(NCC(c1cccnc1)N1CCN(c2ccccc2F)CC1)Oc1ccccc1 (stereo not given),inactive,–
CC(C)S(=O)(=O)N1Cc2ccccc2-n2nncc2C1,inactive,–
CCCCn1c(O)c(C(C)=NC(C)c2ccccc2)c(=O)[nH]c1=O (stereo not given),"inconclusive: 28.2 µM [inhibitor, single point]",–
O=CNc1ccc(OP(=O)(Oc2ccccc2)Oc2ccccc2)cc1,"inconclusive: 11.2 µM [inhibitor, partial curve, poor fit]",–
Cc1cccc(C)c1NC(=O)c1cccn(Cc2ccc3c(c2)OC(F)(F)O3)c1=O,inactive,–
COc1ccc2[nH]cc(CCN=C(N)N)c2c1,inactive,–
CN(CC(=O)Nc1ccccc1-c1ccccc1)C1CCCCC1,"inconclusive: 14.1 µM [inhibitor, partial curve, poor fit]",–
CN1CCN(Cc2ccccc2Sc2ccccc2)CC1,"inconclusive: 7.08 µM [inhibitor, partial curve, poor fit]",–
CCOC(=O)c1nc2ccccc2c(=O)n1-c1ccc(C)cc1C,"inconclusive: 10 µM [inhibitor, partial curve]",–
Cn1cc(/C=C/c2nc3ccccc3c(=O)n2-c2ccccc2)c2ccccc21,inactive,–
CCCc1c(-c2ccccc2F)ncn1CCc1ccccc1OC,"inconclusive: 22.4 µM [inhibitor, single point]",–
Ic1ccccc1CN[C@@H]1C2CCN(CC2)[C@@H]1C(c1ccccc1)c1ccccc1,"inconclusive: 20 µM [inhibitor, single point]",–
CN1CCN(Cc2nnc3n2-c2ccc(Cl)cc2C(c2ccccc2)=NC3)CC1,inactive,–
CN1C(=O)CN=C(c2ccc[nH]2)c2cc(Cl)ccc21 (tested in a mixture with another compound),inactive,–
COC(=O)[C@@]12C[C@@H](CC(=O)NCc3cccc(C(F)(F)F)c3)C(=O)N(Cc3ccco3)C1=CCC(C)(C)C2,"inconclusive: 31.6 µM [inhibitor, single point]",–
CCCCOc1ccc(CNC(=O)c2cc3n(n2)CCCN(Cc2ccc(C)cc2)C3=O)cc1,"inconclusive: 10 µM [inhibitor, single point]",–
CC1CCCN1CCC(C(N)=O)(c1ccccc1)c1ccccc1 (stereo not given),inactive,–
CCN(c1cccc(C)c1)S(=O)(=O)c1ccc2c(c1)oc(=O)n2C,"inconclusive: 8.91 µM [inhibitor, single point]",–

Structure (SMILES),Potency,"activity change, negative = inhibition"
Cc1cccc(NP(=O)(Oc2ccccc2F)Oc2ccccc2F)c1,active: 11.2 µM [setting not given],–
CCOP(=O)(OCC)OCC,inactive,–
Cc1cc(-c2nc3ncccc3o2)ccc1NC(=O)c1ccccc1Br,"inconclusive: 0.501 µM [inhibitor, full curve, poor fit]",–
O=C(c1cccc2ccccc12)C1CCCN(C2CCC2)C1 (stereo not given),"inconclusive: 10 µM [inhibitor, partial curve]",–
CC(C)N(C(=O)CCl)c1ccccc1,"inconclusive: 10 µM [inhibitor, single point]",–
O=C1NCN(c2ccccc2)C12CCN(C(c1cccs1)c1nnnn1-c1ccc3c(c1)OCCO3)CC2 (stereo not given),inactive,–
CCCCn1c(O)c(C(CC)=NCCc2ccccc2)c(=O)[nH]c1=O,"inconclusive: 12.6 µM [inhibitor, partial curve, poor fit]",–
CSc1ccc(CN2CCN(C(=O)COc3ccc(C)cc3)CC2)cc1,"inconclusive: 11.2 µM [inhibitor, single point] and inconclusive: 28.2 µM [inhibitor, single point]",–
COC(=O)[C@@H]1C(OC(=O)c2ccccc2)CC2CCC1N2C (stereo not given in full),"inconclusive: 28.2 µM [inhibitor, single point]",–
c1ccc(-c2cc(-c3ccccc3)[n+](-c3ccccc3)c(-c3ccccc3)c2)cc1,"inconclusive: 12.6 µM [inhibitor, partial curve, poor fit]",–
Cc1ccc(CN2CCN(Cc3ccccc3F)CC2)cc1,"inconclusive: 31.6 µM [inhibitor, single point]",–
C[C@@H]1CCCCO[C@H](CN(C)Cc2ccccc2)[C@@H](C)CN([C@H](C)CO)C(=O)c2cc(NC(=O)c3ccccc3)ccc2O1,"inconclusive: 28.2 µM [inhibitor, single point]",–
CCN(c1ccccc1)S(=O)(=O)c1cccc(C(=O)NCc2cccnc2)c1,"inconclusive: 10 µM [inhibitor, partial curve, poor fit]",–
CSc1ccc(C(=O)C(C)(C)N2CCOCC2)cc1,"inconclusive: 28.2 µM [inhibitor, single point]",–
COc1cccc(O)c1CN1CCCC(C(=O)c2ccccc2SC)C1 (stereo not given),"inconclusive: 14.1 µM [inhibitor, single point]",–
COC(=O)C1=C(c2ccc(OCc3ccccc3)cc2)C[C@@H]2CC[C@H]1N2C(=O)NCc1ccc([N+](=O)[O-])cc1,inactive,–
C[C@H](CO)N1C[C@H](C)[C@H](CN(C)S(=O)(=O)c2ccccc2)Oc2ccc(NC(=O)NC3CCCCC3)cc2CC1=O,"inconclusive: 10 µM [inhibitor, single point]",–
COc1ccc(Nc2cc(C)c3cc(NC(=O)c4ccccc4Cl)ccc3n2)cc1,"inconclusive: 6.31 µM [inhibitor, partial curve, poor fit]",–
COc1ccc(OC)c(NC(=O)Cn2cc(C(=O)c3ccccc3)c3ccccc32)c1,"inconclusive: 11.2 µM [inhibitor, single point]",–
C=C(C)[C@H]1CN[C@H](C(=O)O)[C@H]1CC(=O)O,inactive,–
